In PubChem BioAssay AID1346428 (National Center for Advancing Translational Sciences (NCATS), 2018) one finds activation data, which are given here for 23 compounds.

Out of some 48,000 compounds screened, about 1,200 (2.5%) were called active. Another 2% or so got no clear call; they are omitted.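 How the source made its calls: active means activation of at least 60% and not above a set upper limit (about 1 call in 100 departs from these limits); inconclusive means activation of 40% to 60%, or above that upper limit; inactive means activation under 40%.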 This is one part of the list.

This assay addresses Probable G-protein coupled receptor 32 (Homo sapiens) (UniProt O75388). The assay is described as follows: qHTS for Agonists of Human Resolvin D1 Receptor DRV1. Further: 0% is about no effect. Conditions: CHO-K1 GPR32 beta-arrestin PathHunter luminescence, 90 min; at 76.9 µM; hits give high values; zero percent set by DMSO-only wells. The method in brief: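 Agonism was scored as beta-arrestin recruitment to ProLink-fused GPR32 in stably transfected CHO-K1 cells, giving a chemiluminescent beta-Gal signal; compounds were incubated 90 min at 37 °C.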
Sequence of UniProt O75388 (O75388 whole entry, looked up, the tested form may be a part): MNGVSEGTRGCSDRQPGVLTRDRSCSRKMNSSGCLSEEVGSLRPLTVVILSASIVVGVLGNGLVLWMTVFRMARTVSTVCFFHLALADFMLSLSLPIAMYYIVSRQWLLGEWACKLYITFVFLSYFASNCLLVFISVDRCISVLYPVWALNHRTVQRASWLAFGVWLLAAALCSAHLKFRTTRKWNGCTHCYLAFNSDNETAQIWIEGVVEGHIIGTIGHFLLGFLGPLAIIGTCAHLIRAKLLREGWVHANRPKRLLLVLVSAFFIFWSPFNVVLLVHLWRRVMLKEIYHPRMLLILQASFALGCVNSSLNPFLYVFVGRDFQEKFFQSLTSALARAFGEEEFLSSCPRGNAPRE
Turning to `Cc1cc(C)cc(NC(=O)CSc2nc3nccnc3c(=O)n2CCc2c[nH]c3ccccc23)c1`, the activation is inactive: 1.53%.
For `Cc1ccc(-c2cn3ccc(C)cc3n2)cc1` the value was inactive: -43.7%; for `CC(C)CCn1c(/C=C/c2ccccc2)nc2ccccc21`, inactive: -30.8%; for `CCOC(=O)Cn1c(=O)n(C2CCCCC2)c2nc(-c3c(F)cccc3Cl)nc(C(N)=O)c21`, inactive: -30.6%.
`O=C(Nc1ccccc1Cl)N1CCSc2ccccc21`: the activation was inactive: -29.3%.
In the case of `COC(=O)c1scc(-c2ccc(C)cc2)c1S(=O)(=O)Nc1cc(C)ccc1OC`, the activation is inactive: -12.3%.
For `Cc1cccc(NC(=O)Cn2c(=O)n(CCCCCC(=O)NCc3ccc4c(c3)OCO4)c(=O)c3sccc32)c1` the value was inactive: -24%.
With `O=C(c1ccc2c(c1)N(Cc1ccccc1)C(=O)c1ccccc1S2(=O)=O)N1CCN(Cc2ccccc2)CC1` the figure was inactive: -21.7%; with `COc1ccccc1C(=O)Nc1sc(Nc2ccccc2)nc1C(N)=O`, inactive: -17.1%; with `COc1ccc(Nc2nc(C)nc(N)c2S(=O)(=O)c2ccccc2)cc1`, inactive: -4.86%.
With `Cc1ccc(NC(=O)c2cnc3sc(N4CCOCC4)nn3c2=O)cc1N(C)C` the figure was inactive: -2.75%; with `Cc1ccc(C)c(N2CCN(CCCNC(=O)c3ccc4nc(CCc5ccccc5)oc4c3)CC2)c1`, inactive: -15.7%; with `Cc1cc(C)c2c(NC(=O)c3ccccc3)c(C(=O)Nc3ccc(F)cc3)sc2n1`, inactive: -7.09%.
For `CCOc1ccc(N2CC(NC(=O)C3CCCC3)CC2=O)cc1` (stereo not drawn), the activation is inactive: -8.07%.
For `CCCNC(=O)C1CCC(Cn2c(=O)c3sccc3n(CC(=O)NCc3cccc(OC)c3OC)c2=O)CC1` (stereo not drawn) the value was inactive: -2.58%; for `Cc1ccc(C(=O)N/C(=C\c2ccc(Cl)cc2)C(=O)NC2CCCCC2)cc1`, inactive: -18.8%; for `COc1ccc(OC)c(NS(=O)(=O)c2ccc(N3CCCCS3(=O)=O)cc2)c1`, inactive: 26.3%.
For `COc1cccc(N2CC(NC(=O)c3cc(Cl)ccc3OC)CC2=O)c1` (stereo not drawn) the value was inactive: -14.1%.
In the case of `N#Cc1c(C(F)(F)F)cc(-c2cccs2)nc1SCC(=O)Nc1cccc(Cl)c1`, the activation was inactive: -8.98%.
With `CC(=O)c1cccc(NC(=O)CN(c2cc(C)cc(C)c2)S(=O)(=O)c2c(C)noc2C)c1` the figure was inactive: -1.14%.
With `COc1ccc(C(=O)c2sc(Nc3ccccc3)nc2N)cc1` the figure was inactive: 15.4%; with `COc1ccc(NC(=O)c2ccco2)cc1NC(=O)c1cc(OC)c(OC)c(OC)c1`, inactive: 0.551%; with `COc1ccc(-c2onc(C)c2C)cc1S(=O)(=O)N(C)Cc1ccccc1`, inactive: -22.9%.
